Experimental data as given in PubChem BioAssay AID652106 (National Center for Advancing Translational Sciences (NCATS), 2013).
Out of some 370,000 compounds screened, about 500 (0.14%) were called active. Inconclusive means that the source gave no clear call. Such entries were picked first, then a sample of the others. Calls come from the whole dose curve; as a rule, active = well fitted activation curve with a large enough effect; inconclusive = small, poorly fitted or top-dose-only effect; inactive = no such curve, though single readings can be large or run the other way. No potency is given beside an inconclusive call; the fits are too rough.

assay: qHTS of alpha-syn Inhibitors; conditions: Yeast expressing alpha-synuclein, BacTiter-Glo, 24 h; Potency: growth rescue unless noted; series mostly up to 46.1 µM; note: nearly all actives have a fitted effect of over 65% in size
Method in brief: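 Rescue of yeast growth: cells expressing toxic alpha-synuclein, induced in galactose at OD600 0.02, incubated with compound 24 h at 30 C. ATP luminescence quantified growth; inhibitors of toxicity appear as activators.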
Potency is the fitted concentration of half-maximal effect; tags give direction and shape of the fitted curve.

| Structure (SMILES) | Potency |
| --- | --- |
| Nn1c(C2CCC2)nc2cc(Cl)ccc2c1=O | inactive |
| Cc1ccc2c(c1)N(S(=O)(=O)c1cc(-c3cc(C)no3)ccc1C)CCO2 | inconclusive [activator, single point] |
| O=C1C=C(c2cccc(Br)c2)C[C@@H](c2ccc3c(c2)OCO3)C1 | inactive |
| COc1ccc(NC(=O)c2ccc(-n3cnnn3)cc2)c([N+](=O)[O-])c1 | inactive |
| C[C@H](CO)N1C[C@H](C)[C@H](CN(C)S(=O)(=O)c2ccccc2)OCc2cnnn2CCCC1=O | inconclusive [activator, single point] |
| CCCCOCCCNC(=O)C[C@@H]1C[C@@]2(C(=O)OC)CCCCC=C2N(CCC2=CCCCC2)C1=O | inconclusive [activator, single point] |
| CN[C@H](C)C(=O)NC[C@H]1O[C@@H](n2cc(C)c(=O)[nH]c2=O)C[C@@H]1O | inconclusive [activator, single point] |
| Cc1ccc(NS(=O)(=O)c2ccc(NC(=O)C(C)Sc3ccc(Cl)cc3)cc2)c(C)c1 (stereo unspecified) | inconclusive [activator, single point] |
| O=C(NNC(=S)NCc1ccccc1)c1ccc(Br)o1 | inconclusive [activator, single point] |
| Cn1ccs/c1=N\C(=O)Nc1cccc(C(F)(F)F)c1 | inconclusive [activator, single point] |
| CCC(=O)NC(c1ccc(Cl)cc1Cl)c1ccc2cccnc2c1O (stereo unspecified) | inconclusive [activator, single point] |
| CCn1c(SCC(=O)Nc2nccs2)nnc1-c1cccnc1 | inconclusive [activator, single point] |
| COc1ccccc1OCCn1cc(C(=O)O)c2ccccc21 | inconclusive [activator, single point] |
| CCCCNC(=O)NCCN1CCOCC1 | inconclusive [activator, single point] |
| CCOC(=O)CCCCCC(=O)Nc1ccc2c(c1)C(=O)N([C@H](C)CO)C[C@@H](C)[C@@H](CN(C)C(=O)CCC(F)(F)F)OCCCC[C@H](C)O2 | inconclusive [activator, single point] |
| CCN(CC)C(=O)[C@H]1CC(CC(=O)NCC23CC4CC(CC(C4)C2)C3)C(=O)N2CCc3c([nH]c4ccccc34)[C@]12C (stereo partly specified) | inconclusive [activator, single point] |
| CC(C)C1CC(CCN)(c2ccccc2)CCO1 (stereo unspecified) | inactive |
| COc1ccc(C(O)c2nc(-c3cc(F)cc(Cl)c3)cs2)cc1 (stereo unspecified) | inconclusive [activator, single point] |
| COC(=O)c1ccc(/C=C/C(=O)c2ccc(OC)cc2)cc1 | inactive |
| O=C(O)c1ccc(Cl)c(S(=O)(=O)Nc2ccccc2C(=O)Nc2ccc(Cl)cc2)c1 | inconclusive [activator, single point] |
| CCOC(=O)c1ccc(NC(=O)C2CCCN(c3cnccn3)C2)cc1 (stereo unspecified) | inconclusive [activator, partial curve] |
| Cc1ccc(S(=O)(=O)Nc2ccc3ccccc3c2)cc1 | inconclusive [activator, single point] |

| Structure (SMILES) | Potency |
| --- | --- |
| CC(=O)O[C@H]1C[C@@]2(C)[C@@H](C[C@@H](O)[C@H]3[C@@]4(C)CC[C@@H](O)[C@@H](C)[C@@H]4CC[C@@]32C)/C1=C(\CCC=C(C)C)C(=O)O | inactive |
| CCOc1cc(-c2nc(C)c(C(C)=O)n2O)ccc1OCC(=O)Nc1ccc(F)cc1 | inactive |
| Cc1cccc(N2CCN(C(=O)c3cc4ccccc4oc3=O)CC2)c1C | inconclusive [activator, single point] |
| Cc1ccc2nc(-c3cccnc3)oc2c1 | inconclusive [activator, single point] |
| Cc1ccc(F)cc1-c1nc(NCC2CC2)nc2ccsc12 | inactive |
| Oc1ccc(/C=N/Nc2nccnc2Cl)c(O)c1 | active: 11.2 µM |
| CC(C)(C)C1CCC(=NNS(=O)(=O)c2ccc(Br)cc2)CC1 (stereo unspecified) | inconclusive [activator, single point] |
| CCOC(=O)C1=CCN(S(=O)(=O)c2ccccc2F)C1c1ccc(F)cc1 (stereo unspecified) | inconclusive [activator, single point] |
| CCOC(=O)c1c(C)[nH]c(C(=O)CSc2nnnn2-c2ccccc2)c1C | inactive |
| COc1ccc(OC)c(CCNC(=O)CC2Oc3ccc(C)cc3NC2=O)c1 (stereo unspecified) | inactive |
| CCOC(=O)[C@]12CCCC=C1N(Cc1cccc3ccccc13)C(=O)[C@H](CC(=O)N1CCCC1)C2 | inconclusive [activator, single point] |
| CC(C)CC(OC(=O)c1ccc(Cl)nc1)C(=O)NC1CCCC1 (stereo unspecified) | inactive |
| CC12CCC(O)CC1=CCC1C2CCC2(C)C(c3ccn[nH]3)CCC12 (stereo unspecified) | inconclusive [activator, full curve, poor fit] |
| Clc1cccc(OCc2nnc(-c3ccccc3Br)o2)c1 | inconclusive [activator, single point] |
| Cc1cc(/C=N/n2cnnc2)c(C)n1-c1ccc(OCc2ccc(Cl)cc2Cl)cc1 | inconclusive [activator, single point] |
| Cc1ccc([N+](=O)[O-])cc1NC(=O)C(C)Sc1nnc(C)n1CC1CCCO1 (stereo unspecified) | inconclusive [activator, single point] |
| N=c1c2c(-c3ccccc3)c(-c3ccccc3)n(Cc3ccco3)c2ncn1Cc1ccco1 | inconclusive [activator, single point] |
| CC(C)n1c(=S)[nH]c2ccccc21 | inactive |
| Nc1cc(N2CCCC2)c(Cl)cc1[N+](=O)[O-] | inactive |
| CC(C)c1ccc(C(=O)CSc2ncn[nH]2)cc1 | inconclusive [activator, partial curve] |
| O=c1[nH]c(=O)n([C@H]2C[C@@H](O)[C@@H](CO)O2)cc1C=CBr | inactive |
| Cn1c(SCc2ccc(C(C)(C)C)cc2)nnc1C1COc2ccccc2O1 (stereo unspecified) | inconclusive [activator, single point] |

| Structure (SMILES) | Potency |
| --- | --- |
| CNC[C@H]1OCc2ccccc2-c2ccccc2C(=O)N([C@H](C)CO)C[C@H]1C | inconclusive [activator, single point] |
| CC(C)NC(=O)c1cc(C2CCCCN2S(=O)(=O)c2ccccc2)on1 (stereo unspecified) | inconclusive [activator, single point] |
| CC(C)c1ccc(/C=N/Nc2ccc(C(=O)O)cc2)cc1 | inactive |
| COc1ccccc1N1CCN(C(c2ccccc2)c2nnnn2Cc2ccccc2)CC1 (stereo unspecified) | inconclusive [activator, single point] |
| O=C(CCSc1ccc(Cl)cc1)Nc1cccnc1 | inconclusive [activator, single point] |
| FC(F)Oc1ccc(NC(=S)NC2CCCCCCC2)cc1 | inactive |
| CCCCC[C@H](C)N1C[C@H](COCc2ccccc2)Oc2cc(N3CC[C@@H](O)C3)ccc2S1(=O)=O | inconclusive [activator, single point] |
| COC(=O)c1ccc2nc(-c3cccc(Cl)c3)c(Cc3cccc(F)c3)n2c1 | inconclusive [activator, single point] |
| COc1ccccc1C(C(=O)NC1CCCC1)N(C(=O)c1csnn1)C1CC1 (stereo unspecified) | inactive |
| Cc1ccc(CS(=O)(=O)Cc2ccc(C(=O)NC3CCCC3)o2)cc1 | inactive |
| Cc1nn(S(=O)(=O)c2cccc([N+](=O)[O-])c2)c(C)c1S(=O)(=O)N1CCOCC1 | inconclusive [activator, single point] |
| Brc1c(CSc2nc3ccccc3s2)nc2ncccn12 | inconclusive [activator, single point] |
| O=C(OCC(=O)N1CCc2ccccc2C1)c1ccc(Cl)c([N+](=O)[O-])c1 | inconclusive [activator, single point] |
| COc1cccc(-c2cc3nc(C)cc(N4CCN(C(=O)c5ccoc5)CC4)n3n2)c1 | inactive |
| O=C(Nc1nc(-c2ccccn2)cs1)c1cc(S(=O)(=O)N2CCOCC2)ccc1F | inconclusive [activator, single point] |
| CC(C)N(C(=O)[C@H]1C[C@H](CC(=O)NCc2cccc(C(F)(F)F)c2)C(=O)N2CCc3c([nH]c4ccc(Cl)cc34)[C@]12C)C(C)C | inconclusive [activator, single point] |
| Cc1ccccc1N=C1SC(CC(=O)Nc2ccc3ccccc3c2)C(=O)N1Cc1ccccn1 (stereo unspecified) | inconclusive [activator, single point] |
| CC1=C(C(=O)N2CCCCCC2)CC(CC(=O)NCCCN(C)C)C(=O)N1Cc1ccc(F)cc1 (stereo unspecified) | inconclusive [activator, single point] |
| Cc1cccc(N2CCN(C(=O)C3CCN(c4nnc(-n5cccc5)s4)CC3)CC2C)c1 (stereo unspecified) | inconclusive [activator, single point] |
| Cc1cccc(CS(=O)(=O)c2ncc(Cl)c(C(=O)NCc3ccccc3)n2)c1 | inactive |
| CSc1ncccc1C(=O)OCn1nnc2ccccc2c1=O | inconclusive [activator, single point] |
| COc1ccc(C2CC(c3ccc(Cl)cc3)=NN2c2ccc(S(N)(=O)=O)cc2)cc1 (stereo unspecified) | inconclusive [activator, single point] |
